The list shows a part of the results. At the low end of the ranking the order means little. The protein was read in a cell extract, so binding may be indirect.
Molecular target: T1, HNF4alpha8 (COS-7 nuclear extract) (UniProt P41235-5)
T1 sequence: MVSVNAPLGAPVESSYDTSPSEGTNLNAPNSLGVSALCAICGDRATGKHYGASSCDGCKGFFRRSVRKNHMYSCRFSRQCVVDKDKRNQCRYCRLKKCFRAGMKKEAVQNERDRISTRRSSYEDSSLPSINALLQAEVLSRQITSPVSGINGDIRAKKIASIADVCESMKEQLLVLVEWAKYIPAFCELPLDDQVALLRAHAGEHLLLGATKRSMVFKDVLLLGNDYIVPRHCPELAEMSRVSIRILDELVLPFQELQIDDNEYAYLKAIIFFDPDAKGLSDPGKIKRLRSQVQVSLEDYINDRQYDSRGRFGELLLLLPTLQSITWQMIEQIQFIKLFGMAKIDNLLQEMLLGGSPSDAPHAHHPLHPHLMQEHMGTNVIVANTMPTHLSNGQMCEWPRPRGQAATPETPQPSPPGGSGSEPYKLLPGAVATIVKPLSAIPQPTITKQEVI
Assay: protein-binding microarray
Settings: COS-7 nuclear extract on double-stranded Agilent 4x180k PBM; binding buffer, salt, pH and temperature not given; high values mean tight binding; double strand, one strand shown; sequences stand for … in …GCCTAGGGAGATTAGAGTATCGGTCGA

Row | Sequence | binding signal (log2 normalized intensity)
1 | CCATTTATAAGAAACTGCTCCTGCTTGGGA | -0.881
2 | GGCTGATGACCTTTGACTGAGATGGGAGCA | 4.58
3 | CCAAGGAAGGGCAAACTCTAGCTGTCCTCC | -0.916
4 | TCGTCCCTTCCCTCTGTCTTCAAAACCACA | 0.59
5 | TCCTGGAACTCTGACCTTTGCCCCCAGCCT | 10.1
6 | CACCTACTTGGGATGCTGAGGTGGGAGGAT | -0.834
7 | CCACTAAGAAGCCCAAGGTTAAAATCACAA | -1.29
8 | AACTGATTACTGCACCCCCTTCCCACCTGC | 5.14
9 | CCTTGACCCTTCCTCCCATTTGCTGCTCTA | 1.81
10 | AGCCGGCTCAAAATAGGCAAGACTGCCACC | -1.28
11 | CTTGCAGGGGGCCTCCTGCCCCAGGAGCAG | -1.42
12 | GGTCAAGAGGGCCTCTGCTTGTCTTGGTTG | 0.598
13 | TTCCCTGCAGAAAAGGCCCCAGGGATTGCA | 1.45
14 | CTCACTCTAAAGGAAGGGATTATAAAGCTT | -1.42
15 | AAGGTGAAGGAGAATATTAGATGATAAGGG | -1.32
16 | GGCCAGTTTCTCCACAGCCTCACCAACAGG | -0.9
17 | CTTTATCTAGATAAGTTTATTTACTTATGT | 2.32
18 | CACATTCCAGAACCAAGATTTACATCCTAT | -1.23
19 | ATTTTCTCATCCCAGGGATAATGATAAAGA | -0.501
20 | TTCCCTACCCCCTGGGAGTAACCTGCTTGT | 2.25
21 | AAGGTAGATACTATAATTAGAATCTGCAGG | -1.17
22 | AGTCACACACACCTGTGTCCCCCAGGTCCA | 3.56
23 | CTCTGCAGGAGGACTGGATCAATGGATCCA | -1.27
24 | TTTCTGTATCTAATCTCAGATATGCTAATT | -0.126
25 | GGCCCCAGCAGGCCAGGCCAAATCAGAACT | -1.2

Row | Sequence | binding signal (log2 normalized intensity)
26 | CCCGGCCAGCAGATGAGCCTGTTGGGAGCC | -1.38
27 | ATCTTCCAGGCCTCCAGCTCTTTTGAACCC | 4.31
28 | TACCCGGCAAAGAATTGTGAGTCCAGTTGA | 1.55
29 | GAACGGAATGTGTGATAAGGAACTGTGTAA | 0.721
30 | TTTAATTATCATCTCTGTGTATAAGACTCT | 0.682
31 | ATCAGCAAGGGCATTTGCGTAGGCTGTCAG | 0.124
32 | ATAGGGTTCAAACTCCTATGTGAATCTAAT | 1.78
33 | GGATGGGGAGGGGGCAGGTAAGTACCAATA | -0.99
34 | CACCTCGTCCAGGTGTCTTCAGGCTGGGGC | 0.0763
35 | GCAACCTTTGCTCTCCCTCCTCTCTGAGCA | 2.28
36 | TGAATCTAATGCCACCATTGATCTAACAGG | -1.28
37 | AAGGAAATGGACAACGGAAAGACAGAGGTG | -1.31
38 | TCTCTGGCTGGTGGGCAAGTTATCTCGGGG | -0.0511
39 | AGCCTCTTTATCTCTCTCTCTTTCTTCCCC | 2.62
40 | TTGACCTCTGCTAGGTTTGGGTAAGACTTA | 3.09
41 | AAAAATTGCCCCCGGGCACAGGGTTGAGTG | 3.33
42 | GCCTCCTGCTCTGGGCTTTCTCTGCCTCCA | -1.21
43 | CTATGCAAACAGCGCTTATCTGGAAACTAT | -1.46
44 | CGCTGCGCCACAGCACCACCTGCTGGTCAG | -1.22
45 | ACCTCCCCTTTGTTTAACTTACTATCTGAG | 0.861
46 | GTTCTAGTAAGGCCTTCAAATGATTGGATG | 0.45
47 | AGGCCAATTACTTACATGGGTTAGGAGGAT | 0.128
48 | ACACTATCAGCTACTTCGGGACAAGAGGAA | -0.89
49 | GTCTACAGGTCAGACCTGTTTCAAAACTAC | -0.457
50 | CTTGTCTTATCAGCAGGGTCTTTTTGACCT | 4.79

Row | Sequence | binding signal (log2 normalized intensity)
51 | TTTGAACTGGGTCTTAATAAGATAATAAGT | 1.45
52 | CCAGACAGAGAGGTCAGCAAATGTGGACAC | 1.81
53 | GGCACAGTAACCTGACCCCCAGTGGAATGT | 3.89
54 | GGTAAGGGTGGGGGTGGGGAGGATAGCAGC | -1.12
55 | TGGTGGGGAATGCTAGGACTCATTCTCCCC | 0.175
56 | CAAATAGCAGAAAATCCAGGTGCAGTGTGA | 0.415
57 | TGCCACATACCTTTAAACATTCTTCTCAGT | 1.27
58 | TTTGTGGGCCAAAAGCAGCCATTAAGAAGC | -1.3
59 | GAGGCACCCATCCCTTTGCAATAAAAGATT | -0.0546
60 | GCCCTTTGTATCTTTTAAGATACACTCTTT | 2.69
61 | GCTCCAGAGGAAGATATTATCTCTGTCTGT | -0.105
62 | GCAGTGACCAAGGGTCAGTTTGAAATTAGG | 3.09
63 | AATGACCTTTGTCCAGCTGTGCCGAGCCTG | 4.91
64 | AGGCCAATGAGGGAAGTTATTAACATCAAA | -1.31
65 | CCAAAGTCTATGTGTGCTTTCTTCATTAAC | 1.11
66 | GGGAACCGGCAAGTCTGAAATCTACAGGAC | -1.27
67 | CTGAGCAGGAATGTTTCCTCTCCCAGCCCC | 3.3
68 | GACCTCCACTTTGGAGGGGGAATTTATTTT | -1.18
69 | GGGTTAAAAGCAAACCAAAAAGTTGGTTGG | -1.08
70 | GCTAGGTGGCGGGCTGGCTCAGGACAGGTG | -0.886
71 | AGACAGCCACTGTTTGACGACTGTCTGCCA | -1.25
72 | GTGTGTGTGTGTGTGTGGTGTGTGTGTGTG | 3.45
73 | CCTCAAAGAGCATGGCGCCAGGGAGTGATT | -0.795
74 | ACCAGGGCTAGACCCGTCAGCCCTGGTCCA | -1.1
75 | CTTCGATCACCTCAAGAAAGAGGTGGTTCT | -1.22

Row | Sequence | binding signal (log2 normalized intensity)
76 | TAAGATCCAAAGGAGTGGTCCTGCTCAAAG | -1.26
77 | TTGTATAGCATGAACTACACAGATTCTGCA | -1.27
78 | GTGGTGTAGAGGCCCTGCAGGGCCCCACAT | -1.12
79 | CATGATTGTGGAGGATGGGAAGTCCAAAGT | 3.91
80 | ACATTTCCTTTTTGGCCAGCCCCGGGAATT | 1.53
81 | TTACACCTGTGTGTACTGGGCAGATAACAG | -0.168
82 | ACTGAAAGAACACAGCGCAGCACACTGCAG | -1.26
83 | AACTGACCTTGCAGGCCAGGGAGTGCAGCT | -1.09
84 | GATGGGTCCACACAGCTGAATCCAAAGGTC | 6.95
85 | CTCATAAGAGACTTTGCCCTTTTTTTCTCT | 4.7
86 | AAATAGAGCAGCCTGGGGTAAAACCAAACT | -1.32
87 | AGAGAGACCGTCCCTGGGTACAACTTTATC | 1.35
88 | CAGGGAGTGCCCTTCCACTTAGGCTTGCAA | -1.12
89 | CAAAGTGCATTGGAGGCCAGATGCCAACTG | -1.17
90 | AATCAACTGCCCTCTGCCTTTCAGGCAGGA | -1.36
91 | GCAATCTTCCAGTCCACAGTCCAGTGACTA | 0.759
92 | AATGGTCATTCTCTGTTGCATGGTTGACAT | 1.61
93 | AGGAGCCTCCAATCAGGACAGACTGGTTGA | -0.921
94 | GCAAGGATCAGCCCCACACTCCTGGGCTGT | -1.46
95 | CAAGGGGAATGTGGATGCTGGAATGAGGGA | -1.45
96 | CAGAAACAAAGGGGGAGGGAGATAGAGAAA | -1.32
97 | CCAGTGACTATCTGCTACTTAAGATAGAGG | 0.373
98 | TTTAGGAAGAGATCAAAGTTCTGTTTGTAT | 3.39
99 | ATCTGGTGGTGGTTCTTGTTTCATTGCACA | 1.7
100 | CAGCTGGTCACACTGCACCTGCCTGAACAA | -1.46

Row | Sequence | binding signal (log2 normalized intensity)
101 | GGAAGATAAGCTATTATTTACATTGTTGGG | 0.903
102 | CGGTCCTCGCTCGCCCGAGCGCTGCTTCTC | -1.56
103 | TGAGACTCAAGGCAAGTTGCTTCCACCTAT | -1.4
104 | CTTGGCCTGCATAGCACTTTCATAACTTCT | -1.23
105 | AGGTCAGAGTTGAACCCTTGGGGCTTTTGC | 2.84
106 | ATACAGATTTCATCTAAGGACAAACTTTGT | 1.87
107 | AGATACAGTTTGAAAAACACTGGATAAAGT | -1.27
108 | AAAAAGACGCGGTCTCAGTTAACGGGGACG | -1.34
109 | GCTTGAGCGAGACAGCGGGTGTTTCTGGGA | 0.72
110 | TTCCCCAGCGACTGAGCTGAGGTTAGAATC | -0.214
111 | CTGTTTTACTGGGGCCCATTGTATGAGGGT | 1.38
112 | CAGAGAGATACTGAACCTTGCACTATTGAC | 3.97
113 | CTGCAGTCAGGGGTTAGGCCTGGAACCTGT | 1.32
114 | GATCCAAAAGACCCAGGTGTGTTGCAACTT | 1.36
115 | ATCAAAGGTCAAAATATCTGATCGATATCC | 3.58
116 | GGCATATCTCTGTCCCTGATACCATTATCT | 0.708
117 | TGGGGGAGGTAGGTAAGGACCAGATCATTC | -1.29
118 | ACAGTAGACTTTTTTTTTCTTAATTGCCCT | 3.18
119 | CTCTCAAAAATCTCACTCACCCTAAGCCCT | 2.65
120 | CCCACCCCCACGCCCCCCAGCGGAAGTCCA | 6.82
121 | TAATGTGCCCAAAAGGACACAGGGTCTGTT | -0.265
122 | GTGGAAGGATCACCTGAGTCCAGAGGTCAA | 5.66
123 | TTCCTGTCACAAGAGATAAAGCTCTTTGTC | -0.389
124 | AGTCAGTTGCATGCAACCTTTGTCCTCATT | 6.53
125 | GGGATCCAGGTGCAAAGTACTTCCGATCTC | 1.3

Row | Sequence | binding signal (log2 normalized intensity)
126 | AATTCATCTCTAAGCTACTGAAAATGACCT | 3.88
127 | TAAGATAAGGAGGTAGAGTCTAAGGCTAAA | -1.2
128 | GCCTTGGGCAAGTTACTTAAGCCATCTGCT | -1.39
129 | TCTCCTGCATTCCTGTCCACCCTGAAAGAG | 0.378
130 | AGCCAACCAGAGGCTGAAGTGAAGTTACAA | -1.25
131 | TCTCCAGGGTCCTTGCCTTAAGAGCAGTCT | -0.906
132 | AGCCCAAGGCAAAGCAGATGTGCTAACACT | -1.28
133 | CAGACACACAATATTATGTTTTGTTATCTG | 1.2
134 | GGTTGCCCTAGTGACTCTAGGAACCTTTCT | 0.299
135 | TGGTCAATATCCACACAAACCCAGTTTGCA | -1.31
136 | GGATACCTAAGCCCCATGCTGATAAGGGCC | -1.29
137 | TGGCATTTGAGACTAGCCACAATAGGCCCT | -1.18
138 | AGAGAAAAATCTTCAAACAACCCTTCGCTA | -1.38
139 | CCAATTCACAGAACTCCCTAAGTGGCCTCA | 0.0537
140 | TCTTGGAAACATTTTACTCACCCCTTGCTG | 1.62
141 | GAGGGTTCTCACTCCTCTATCAGTACAAAT | 0.933
142 | CCCCTCGGCCGCTCCCTCCCCTCCTCCCTT | 5.12
143 | CATTGCTGACCTTGCCTCTGTGCTCCCAGT | 1.04
144 | GAATTTTGTGCAATTACACAACTTCCTTCA | -1.38
145 | TCTGTGTGGTAAAAGCACTGAACCCTGTTT | 2.31

Reference: PMC10726135
